Results as given in PubChem BioAssay AID485294 (National Center for Advancing Translational Sciences (NCATS), 2010).
Out of some 370,000 compounds screened, about 150 (0.041%) were called active. The shares of active, inactive and inconclusive entries below differ from those in the screen. Calls come from the whole dose curve; as a rule, active = well fitted inhibition curve with a large enough effect; inconclusive = small, poorly fitted or top-dose-only effect; inactive = flat fitted curve, though single readings scatter. No potency is given beside an inconclusive call; the fits are too rough.

The compounds below were run against Beta-lactamase (Escherichia coli (strain K12)) (UniProt P00811) (assay: qHTS Inhibitors of AmpC Beta-Lactamase (assay with detergent)). Conditions: AmpC hydrolysis of nitrocefin, absorbance 480 nm, 0.01% Triton; activity change, negative = inhibition: at 114 µM (top of the series).
Summary of the method: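 AmpC (5.3 nM in the dispensed reagent) in 20 mM phosphate pH 7.0 with 0.01% (detergent screen) or 0.0001% Triton X-100 was preincubated with compounds for 15 min at room temperature. Nitrocefin was then added from an 800 uM solution, and hydrolysis was followed at 480 nm.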
Note: nearly all actives have a fitted effect of over 25% in size.
Potency is the fitted concentration of half-maximal effect; tags give direction and shape of the fitted curve.
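Throughout, for activity change, negative = inhibition: 0% = no-compound wells and -100% = no-enzyme wells.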

UniProt P00811, sequence (P00811 whole entry, looked up): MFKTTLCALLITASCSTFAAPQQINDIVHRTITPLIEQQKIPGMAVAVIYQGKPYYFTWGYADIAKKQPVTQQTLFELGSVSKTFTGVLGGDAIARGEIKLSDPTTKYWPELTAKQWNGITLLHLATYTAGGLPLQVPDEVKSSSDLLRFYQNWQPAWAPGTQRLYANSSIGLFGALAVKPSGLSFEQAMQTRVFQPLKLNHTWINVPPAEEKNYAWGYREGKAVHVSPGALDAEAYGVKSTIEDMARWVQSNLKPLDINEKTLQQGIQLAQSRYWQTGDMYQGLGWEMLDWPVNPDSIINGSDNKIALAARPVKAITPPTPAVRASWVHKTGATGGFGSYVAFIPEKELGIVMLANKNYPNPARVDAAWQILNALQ

Row | Compound | Potency | activity change, negative = inhibition
1 | Cc1ccc(SCc2nc(-c3cccnc3)no2)cc1 | inconclusive [inhibitor, full curve, poor fit] | 
2 | CCCCCCCNC(=O)C1(CC2CC(c3cccc(Br)c3)=NO2)CCN(C(=O)C2(C)CC2)CC1 (stereo not given) | inconclusive [inhibitor, single point] | 
3 | CCOC(=O)CCCSc1nc2sc(C)c(C)c2c(=O)[nH]1 | inconclusive [inhibitor, full curve, poor fit] | 
4 | CCCNC(=O)C1CC(=O)N(c2ccc(OCc3ccc(Cl)cc3)cc2)C1 (stereo not given) | inconclusive [inhibitor, full curve] | 
5 | CCn1c(SCC(=O)c2ccccc2)nnc1-c1ccoc1C | inconclusive [inhibitor, partial curve, poor fit] | 
6 | Cc1ccc(N2CCN(/N=C/c3sccc3C)CC2)cc1 |  | inactive: -1.17%
7 | COc1ccc(NC(=O)N(Cc2cc3cc(OC)c(OC)cc3[nH]c2=O)CC2CCCO2)cc1 (stereo not given) |  | inactive: 6.01%
8 | CCc1cccc(C)c1NC(=O)C1CN(S(=O)(=O)c2ccccc2)CCN1S(=O)(=O)c1ccccc1 (stereo not given) | inconclusive [inhibitor, full curve] | 
9 | O=C(Nc1ccc(-c2nc3cc(Cl)ccc3c(=O)o2)cc1)c1ccco1 | inconclusive [inhibitor, single point] | 
10 | COc1cc(NC(=S)N2CCCC(CO)C2)cc(OC)c1 (stereo not given) |  | inactive: -3.75%
11 | CC1C(=O)N2CCCc3cc(NC(=O)c4ccccc4Br)cc1c32 (stereo not given) | inconclusive [inhibitor, single point] | 
12 | O=S(=O)(c1ccccc1)n1ccc2cccnc21 | inconclusive [inhibitor, full curve] | 
13 | CCc1c(C)c2ccc(O)c(CN3CCCC3)c2oc1=O |  | inactive: 1.18%
14 | CC1(C)CC(CC(=O)O)(c2ccc(F)cc2)CCO1 (stereo not given) | inconclusive [inhibitor, partial curve, poor fit] | 
15 | O=CN1CCN(C(=O)c2ccc([N+](=O)[O-])cc2)CC1 | inconclusive [inhibitor, partial curve, poor fit] | 
16 | CCSc1nc2c([nH]c3ccccc32)c(=O)n1CC |  | inactive: 5.58%
17 | CC(Oc1ccccc1)C(=O)NNS(=O)(=O)c1ccc([N+](=O)[O-])cc1 (stereo not given) | inconclusive [inhibitor, partial curve] | 
18 | CN(CC1COCCO1)C(=O)c1cc(COc2c(F)cccc2F)on1 (stereo not given) |  | inactive: -0.0956%
19 | C[C@]12CCC(=O)CC1CCC1C2CC[C@]2(C)C(OC(=O)CCC(=O)O)CCC12 (stereo not given in full) |  | inactive: -12.8%
20 | COC(=O)c1[nH]c(C)c(/C(O)=C2\C(=O)C(=O)N(CCN(C)C)C2c2cc(OC)ccc2OC)c1C (stereo not given) | inconclusive [inhibitor, full curve, poor fit] | 
21 | Cc1ccc(NS(=O)(=O)c2ccc(OCC(N)=O)cc2)cc1 | inconclusive [inhibitor, full curve, poor fit] | 
22 | CCOC(=O)c1c(C)[nH]c(C(=O)N2CCCC(C(=O)c3ccccc3OC)C2)c1C (stereo not given) |  | inactive: -8.18%
23 | CCc1ccc(NC(=O)NCC2CCN(Cc3cccc(Cl)c3)CC2)cc1 |  | inactive: -0.86%
24 | COc1ccc(-n2nnc3c(=O)n(Cc4cc(C)ccc4C)cnc32)cc1 |  | inactive: -1.3%

Row | Compound | Potency | activity change, negative = inhibition
25 | Cc1ccc(NC(=O)CN2C(=O)CCc3cc(S(=O)(=O)N4CCOCC4)ccc32)cc1F |  | inactive: 11.1%
26 | CC(NC(=O)c1cc(S(=O)(=O)N2CCOCC2)cn1C)c1ccccc1 (stereo not given) | inconclusive [inhibitor, partial curve, poor fit] | 
27 | COc1ccc(C(NC(=O)C(C)C)c2c(O)ccc3ccccc23)cc1OC (stereo not given) | inconclusive [inhibitor, partial curve, poor fit] | 
28 | CN(C)/C=C/C(=O)c1ccc([N+](=O)[O-])c(CS(=O)(=O)c2ccc(Cl)cc2)c1 | inconclusive [inhibitor, partial curve] | 
29 | COCc1nc2ccccc2n1CCOc1cccc(C)c1 |  | inactive: -2.49%
30 | O=C(CN1N=C(c2ccc(Cl)cc2)CCC1=O)NCCc1ccc(Cl)cc1 |  | inactive: 9.06%
31 | Cc1cc(C)n(-c2ccc(C(=O)OCC(=O)Nc3ccc(S(=O)(=O)N4CCOCC4)cc3)cc2)n1 | inconclusive [inhibitor, full curve, poor fit] | 
32 | COC(=O)COc1ccc(S(=O)(=O)NCc2ccco2)cc1 | inconclusive [inhibitor, full curve] | 
33 | COC(=O)C1CCN(c2cc(=O)n(C3CCCCC3)c(=O)[nH]2)CC1 |  | inactive: -6.66%
34 | O=c1cc(N2CCN(c3ccccc3)CC2)[nH]c(=O)n1Cc1ccc(F)cc1 | inconclusive [inhibitor, full curve] | 
35 | CCC(=O)Nc1ccc(SC#N)cc1C | inconclusive [inhibitor, single point] | 
36 | COc1ccc(NC(=O)c2cc(-c3cccs3)on2)cc1OC |  | inactive: 2.72%
37 | O=C(Oc1ccc(-c2nnco2)cc1)N1CCOCC1 | inconclusive [inhibitor, partial curve, poor fit] | 
38 | O=C(CC1CCCCC1)NCc1cn2ccsc2n1 | inconclusive [inhibitor, partial curve] | 
39 | CC(C)Sc1nnc(SCC(=O)NCCCN2CCCC2=O)s1 |  | inactive: 4.9%
40 | CC(C)C(=O)N(Nc1nc2ccccc2s1)C(=O)C(C)C |  | inactive: -15.3%
41 | O=C(/C=C/c1ccccc1)NC(=S)NNC(=O)c1cccnc1 |  | inactive: -11.6%
42 | CCOc1ccc(C(=O)Nc2ccc(NC(=O)c3cccs3)cc2)cc1[N+](=O)[O-] |  | inactive: -13.9%
43 | O=C(N/N=C1\CC2CC=CC12)c1ccccc1Cl (stereo not given) |  | inactive: 6.04%
44 | O=C(NCc1ccco1)C(c1ccncc1)N(CCC1=CCCCC1)C(=O)Cn1nnc2ccccc21 (stereo not given) | inconclusive [inhibitor, full curve, poor fit] | 
45 | O=C(CCNC(=O)N1CCn2c1nc1ccccc12)NCc1ccccc1Cl | inconclusive [inhibitor, full curve, poor fit] | 
46 | Cn1nnc2cc(C(=O)N3CCN(c4ccccn4)CC3)ccc21 | inconclusive [inhibitor, partial curve, poor fit] | 
47 | CC(=C\C(=O)O)/C(=C/c1ccco1)C(=O)O |  | inactive: 3.4%
48 | O=C(CSc1ncn[nH]1)NCCC(c1ccccc1)c1ccccc1 |  | inactive: -1.17%

Row | Compound | Potency | activity change, negative = inhibition
49 | Cc1ccc(S(C)(=O)=O)cc1S(=O)(=O)Nc1ccccc1 | inconclusive [inhibitor, full curve] | 
50 | COc1ccccc1Cn1c(=S)[nH]c2ccc(Br)cc2c1=O | inconclusive [inhibitor, full curve, poor fit] | 
51 | CC(C)N1C(=O)C2ON(c3ccccc3)C(c3cccs3)C2C1=O (stereo not given) | inconclusive [inhibitor, full curve, poor fit] | 
52 | CCC(=NCCCn1ccnc1)c1c(O)n(-c2ccccc2)c(=O)[nH]c1=O |  | inactive: 9.28%
53 | Cc1cc(C)c2c(N)c(C(=O)N3CCN(c4ncccn4)CC3)sc2n1 | inconclusive [inhibitor, partial curve] | 
54 | O=C(Nc1cccnc1)c1cc(-c2ccc(Br)cc2)on1 | inconclusive [inhibitor, full curve, poor fit] | 
55 | Cc1cccc2cc(C#N)c(N3CCN(C)CC3)nc12 | inconclusive [inhibitor, full curve] | 
56 | N#CC1(NC(=O)COC(=O)c2cc([N+](=O)[O-])ccc2N2CCCC2)CCCCC1 | inconclusive [inhibitor, partial curve, poor fit] | 
57 | COc1ccc(Cn2cnc3c(N)c(C)c(C)cc32)cc1 | inconclusive [inhibitor, full curve] | 
58 | O=C(O)CSc1nnc(Cc2ccccc2)n1Cc1ccccc1 | inconclusive [inhibitor, full curve, poor fit] | 
59 | CCOC(=O)c1nn(-c2ccc(Cl)cc2)c2nnc(Cc3ccc(C)cc3)c(=O)n12 | inconclusive [inhibitor, partial curve] | 
60 | NS(=O)(=O)c1ccc(NC(=S)Nc2ccc(F)c(F)c2)cc1 |  | inactive: -2.62%
61 | O=C(O)CC(c1ccccc1)n1cccc1 (stereo not given) | inconclusive [inhibitor, full curve, poor fit] | 
62 | COc1ccc([N+](=O)[O-])cc1NC(=O)C(C)N(C)Cc1cccc(OC)c1OC (stereo not given) | inconclusive [inhibitor, partial curve, poor fit] | 
63 | Cc1c(C(=O)Nc2nc(-c3ccc(F)cc3)ns2)oc2ccc(Cl)cc12 |  | inactive: 26.4%
64 | Cc1cc(=O)n(Cc2ccccc2)c(O)c1C#N | inconclusive [inhibitor, partial curve, poor fit] | 
65 | Cc1ccc(NC(=O)c2ccc(Cl)c(S(=O)(=O)Nc3c(C)n(C)n(-c4ccccc4)c3=O)c2)cc1Cl | inconclusive [inhibitor, single point] | 
66 | COc1ccc(CCNC(=O)c2cc3c(F)cccc3s2)cc1OC | inconclusive [inhibitor, partial curve] | 
67 | Cc1ccc(Cl)cc1NC(=O)COC(=O)C12CC3CC(CC(C3)C1)C2 | inconclusive [inhibitor, partial curve, poor fit] | 
68 | CSCC[C@H](NS(=O)(=O)c1ccc(C)cc1)C(=O)N1CCC(C(=O)N[C@H](C(=O)O)c2ccccc2)CC1 | inconclusive [inhibitor, full curve, poor fit] | 
69 | COc1ccc(C2=COc3ccccc3C(=O)N2)cc1 | inconclusive [inhibitor, full curve, poor fit] | 
70 | CCN(CC)C1=CC(=[N+]2CCCC2)CC(C)(C)C1 | inconclusive [inhibitor, partial curve, poor fit] | 
